Results as given in patent publication US10299477B2 (priority 2015, dated 2019).

Tests used:
Format in all cases: in vivo
Puccinia recondita = test: Test Example E: Brown rust on wheat; conditions: for Test E (control value class, brown rust on wheat): in vivo; for Test E control value (brown rust on wheat): preventive, control value class
Description: [Test Example E] Brown Rust on Wheat

Botrytis cinerea = test: Test Example B: Gray mold on tomato; conditions: for Test B (control value class, gray mold on tomato): in vivo; for Test B control value (gray mold on tomato): preventive, control value class
Description: [Test Example B] Gray Mold on Tomato
Seeds of a test plant (tomato variety: Oogata Fukuju) were planted followed by cultivating until three to five first leaves (true leaves) appeared.

Plasmopara viticola = test: Test Example G: Downy mildew on vine; conditions: for Test G (control value class): 250 ppm spray; for Test G (control value class, downy mildew on vine): 250 ppm, sprayed 2.5 ml/pot before inoculation; for Test G control value (downy mildew on vine): 250 ppm spray (2.5 ml/pot), preventive, control value class
Description: [Test Example G] Downy Mildew on Vine
Seeds of a test plant (grape variety: Neomuscat) were planted followed by cultivating until three to four first leaves appeared. […] After the sprayed dilutions were dried, a zoosporangia suspension (1-2×10^4 zoosporangia/ml) of Plasmopara viticola was inoculated to the plants by spraying.

Alternaia brassicicola = test: Test Example C: Alternaria sooty spot on cabbage; conditions: for Test C (control value class, Alternaria sooty spot on cabbage): in vivo; for Test C control value (Alternaria sooty spot on cabbage): preventive, control value class
Description: [Test Example C] Alternaria Sooty Spot on Cabbage
Seeds of a test plant (cabbage variety: Shikidori) were planted followed by cultivating until the cotyledons extended.

[1] = test system: Blumeria graminis f sp. hordei; test: Test Example D: Powdery mildew on barley; conditions: for Test D (control value class, powdery mildew on barley): in vivo; for Test D control value (powdery mildew on barley): preventive, control value class
Description: [Test Example D] Powdery Mildew on Barley
After the sprayed dilutions were dried, conidia of Blumeria graminis f sp. hordei were inoculated to the plants by shaking off.

[2] = Brown rust on wheat, control value=100{1-(n/3)}
[3] = Gray mold on tomato, control value=100{1-(n/3)}
[4] = Downy mildew on vine, 2.5 ml/pot, evaluated 7-10 days after inoculation
[5] = Alternaria sooty spot on cabbage, control value=100{1-(n/3)}
[6] = Powdery mildew on barley, control value=100{1-(n/3)}
[7] = evaluated 7-10 days after inoculation
[8] = brown rust on wheat, Puccinia recondita, 250 ppm spray
[9] = gray mold on tomato, Botrytis cinerea, 250 ppm spray
[10] = downy mildew on vine, Plasmopara viticola, 7-10 days after inoculation
[11] = Alternaria sooty spot on cabbage, 250 ppm spray
[12] = powdery mildew on barley, 250 ppm spray

Compound: Cn1c(-c2c(F)cc(F)cc2F)c(-c2cc(F)cc(F)c2Br)cc(Cl)c1=O [Compound 816]
- Test E (control value class) (Puccinia recondita; [2]): H (H shows more than 50% of control values)
- Test B (control value class) (Botrytis cinerea; [3]): H (H shows more than 50% of control values)
- Test G (control value class) (Plasmopara viticola; [4]): L (L shows 50% or less of control values)
- Test C (control value class) (Alternaia brassicicola; [5]): H (H shows more than 50% of control values)
- Test D (control value class) [1, 6]: H (H shows more than 50% of control values)

Compound: CCOc1cc(F)c(-c2c(-c3cccc(F)c3Cl)cc(Br)c(=O)n2CC)c(F)c1 [Compound 659]
- Test E (control value class, brown rust on wheat) (Puccinia recondita): H (H shows more than 50% of control values)
- Test B (control value class, gray mold on tomato) (Botrytis cinerea): H (H shows more than 50% of control values)
- Test G (control value class, downy mildew on vine) (Plasmopara viticola; [7]): L (L shows 50% or less of control values)
- Test C (control value class, Alternaria sooty spot on cabbage) (Alternaia brassicicola): H (H shows more than 50% of control values)
- Test D (control value class, powdery mildew on barley) [1]: H (H shows more than 50% of control values)

Compound: COc1cc(OC)c(Cl)c(-c2ccc(=O)n(CC(F)F)c2-c2c(F)cc(F)cc2F)c1 [Compound 343]
- Test E control value (brown rust on wheat) (Puccinia recondita; 250 ppm spray): H (H shows more than 50% of control values)
- Test B control value (gray mold on tomato) (Botrytis cinerea; 250 ppm spray): H (H shows more than 50% of control values)
- Test G control value (downy mildew on vine) (Plasmopara viticola; 7-10 days after inoculation): H (H shows more than 50% of control values)
- Test C control value (Alternaria sooty spot on cabbage) (Alternaia brassicicola; 250 ppm spray): H (H shows more than 50% of control values)
- Test D control value (powdery mildew on barley) ([1]; 250 ppm spray): H (H shows more than 50% of control values)

Compound: C#Cc1cc(-c2cc(OC)ccc2Cl)c(-c2c(F)cccc2F)n(CC)c1=O [Compound 351]
- Test E control value (brown rust on wheat) (Puccinia recondita; 250 ppm spray): H (H shows more than 50% of control values)
- Test B control value (gray mold on tomato) (Botrytis cinerea; 250 ppm spray): H (H shows more than 50% of control values)
- Test G control value (downy mildew on vine) (Plasmopara viticola; 7-10 days after inoculation): L (L shows 50% or less of control values)
- Test C control value (Alternaria sooty spot on cabbage) (Alternaia brassicicola; 250 ppm spray): H (H shows more than 50% of control values)
- Test D control value (powdery mildew on barley) ([1]; 250 ppm spray): H (H shows more than 50% of control values)

Compound: CCn1c(-c2c(F)cc(OC)cc2F)c(-c2cccc(F)c2F)ccc1=O [Compound 588]
- Test E (control value class, brown rust on wheat) (Puccinia recondita): H (H shows more than 50% of control values)
- Test B (control value class, gray mold on tomato) (Botrytis cinerea): H (H shows more than 50% of control values)
- Test G (control value class, downy mildew on vine) (Plasmopara viticola; [7]): H (H shows more than 50% of control values)
- Test C (control value class, Alternaria sooty spot on cabbage) (Alternaia brassicicola): H (H shows more than 50% of control values)
- Test D (control value class, powdery mildew on barley) [1]: H (H shows more than 50% of control values)

Compound: CCn1c(-c2c(F)cc(OC)cc2F)c(-c2cccc(F)c2Cl)cc(Cl)c1=O [Compound 490]
- Test E (control value class) (Puccinia recondita; [8]): H (H shows more than 50% of control values)
- Test B (control value class) (Botrytis cinerea; [9]): H (H shows more than 50% of control values)
- Test G (control value class) (Plasmopara viticola; [10]): L (L shows 50% or less of control values)
- Test C (control value class) (Alternaia brassicicola; [11]): H (H shows more than 50% of control values)
- Test D (control value class) [1, 12]: H (H shows more than 50% of control values)

Compound: CCn1c(-c2c(F)cccc2F)c(-c2ccccc2SC)ccc1=O [Compound 209]
- Test E control value (brown rust on wheat) (Puccinia recondita; 250 ppm spray): H (H shows more than 50% of control values)
- Test B control value (gray mold on tomato) (Botrytis cinerea; 250 ppm spray): H (H shows more than 50% of control values)
- Test G control value (downy mildew on vine) (Plasmopara viticola; 7-10 days after inoculation): H (H shows more than 50% of control values)
- Test C control value (Alternaria sooty spot on cabbage) (Alternaia brassicicola; 250 ppm spray): H (H shows more than 50% of control values)
- Test D control value (powdery mildew on barley) ([1]; 250 ppm spray): H (H shows more than 50% of control values)

Compound: COc1cc(F)c(-c2c(-c3cccc(F)c3Cl)cc(C)c(=O)n2C)c(F)c1 [Compound 517]
- Test E (control value class) (Puccinia recondita; [8]): H (H shows more than 50% of control values)
- Test B (control value class) (Botrytis cinerea; [9]): H (H shows more than 50% of control values)
- Test G (control value class) (Plasmopara viticola; [10]): H (H shows more than 50% of control values)
- Test C (control value class) (Alternaia brassicicola; [11]): H (H shows more than 50% of control values)
- Test D (control value class) [1, 12]: H (H shows more than 50% of control values)

Compound: CCn1c(-c2c(F)cc(F)cc2F)c(-c2ccc(OC)cc2Cl)cc(C)c1=O [Compound 750]
- Test E (control value class) (Puccinia recondita; [2]): H (H shows more than 50% of control values)
- Test B (control value class) (Botrytis cinerea; [3]): H (H shows more than 50% of control values)
- Test G (control value class) (Plasmopara viticola; [4]): H (H shows more than 50% of control values)
- Test C (control value class) (Alternaia brassicicola; [5]): H (H shows more than 50% of control values)
- Test D (control value class) [1, 6]: H (H shows more than 50% of control values)

Compound: CCn1c(-c2c(F)cc(F)cc2F)c(-c2ccc(C)cc2Cl)ccc1=O [Compound 626]
- Test E (control value class, brown rust on wheat) (Puccinia recondita): H (H shows more than 50% of control values)
- Test B (control value class, gray mold on tomato) (Botrytis cinerea): H (H shows more than 50% of control values)
- Test G (control value class, downy mildew on vine) (Plasmopara viticola; [7]): H (H shows more than 50% of control values)
- Test C (control value class, Alternaria sooty spot on cabbage) (Alternaia brassicicola): H (H shows more than 50% of control values)
- Test D (control value class, powdery mildew on barley) [1]: H (H shows more than 50% of control values)

Compound: O=C1CCC(c2cc(F)ccc2Cl)=C(c2c(F)cccc2F)N1CC(F)F [Compound 388]
- Test E (control value class) (Puccinia recondita; [8]): L (L shows 50% or less of control values)
- Test B (control value class) (Botrytis cinerea; [9]): H (H shows more than 50% of control values)
- Test G (control value class) (Plasmopara viticola; [10]): H (H shows more than 50% of control values)
- Test C (control value class) (Alternaia brassicicola; [11]): L (L shows 50% or less of control values)
- Test D (control value class) [1, 12]: H (H shows more than 50% of control values)

Compound: CCn1c(-c2c(F)cccc2Cl)c(-c2c(Cl)c(OC)cc(OC)c2Cl)cc(Cl)c1=O [Compound 167]
- Test E control value (Puccinia recondita; Brown rust on wheat): L (L shows 50% or less of control values)
- Test B control value (Botrytis cinerea; Gray mold on tomato): L (L shows 50% or less of control values)
- Test G control value (Plasmopara viticola; Downy mildew on vine, 250 ppm sprayed before inoculation, 7-10 days after inoculation): L (L shows 50% or less of control values)
- Test C control value (Alternaia brassicicola; Alternaria sooty spot on cabbage): L (L shows 50% or less of control values)
- Test D control value ([1]; Powdery mildew on barley): L (L shows 50% or less of control values)

Compound: Cn1c(-c2c(F)cccc2F)c(-c2cc(OCC3CCCC3)ccc2Cl)ccc1=O [Compound 324]
- Test E control value (brown rust on wheat) (Puccinia recondita; 250 ppm spray): L (L shows 50% or less of control values)
- Test B control value (gray mold on tomato) (Botrytis cinerea; 250 ppm spray): L (L shows 50% or less of control values)
- Test G control value (downy mildew on vine) (Plasmopara viticola; 7-10 days after inoculation): L (L shows 50% or less of control values)
- Test C control value (Alternaria sooty spot on cabbage) (Alternaia brassicicola; 250 ppm spray): H (H shows more than 50% of control values)
- Test D control value (powdery mildew on barley) ([1]; 250 ppm spray): L (L shows 50% or less of control values)

Compound: COc1cc(F)c(-c2c(-c3cc(OC)ccc3Cl)cc(Cl)c(=O)n2C)c(F)c1 [Compound 722]
- Test E (control value class, brown rust on wheat) (Puccinia recondita): H (H shows more than 50% of control values)
- Test B (control value class, gray mold on tomato) (Botrytis cinerea): H (H shows more than 50% of control values)
- Test G (control value class, downy mildew on vine) (Plasmopara viticola; [7]): H (H shows more than 50% of control values)
- Test C (control value class, Alternaria sooty spot on cabbage) (Alternaia brassicicola): H (H shows more than 50% of control values)
- Test D (control value class, powdery mildew on barley) [1]: H (H shows more than 50% of control values)

Compound: Cn1c(-c2c(F)cc(F)cc2F)c(-c2ccccc2F)ccc1=O [Compound 528]
- Test E (control value class) (Puccinia recondita; [8]): H (H shows more than 50% of control values)
- Test B (control value class) (Botrytis cinerea; [9]): H (H shows more than 50% of control values)
- Test G (control value class) (Plasmopara viticola; [10]): H (H shows more than 50% of control values)
- Test C (control value class) (Alternaia brassicicola; [11]): H (H shows more than 50% of control values)
- Test D (control value class) [1, 12]: H (H shows more than 50% of control values)

Compound: COc1cc(F)c(-c2c(-c3ccccc3Cl)cc(C)c(=O)n2C)c(F)c1 [Compound 733]
- Test E (control value class, brown rust on wheat) (Puccinia recondita): H (H shows more than 50% of control values)
- Test B (control value class, gray mold on tomato) (Botrytis cinerea): H (H shows more than 50% of control values)
- Test G (control value class, downy mildew on vine) (Plasmopara viticola; [7]): H (H shows more than 50% of control values)
- Test C (control value class, Alternaria sooty spot on cabbage) (Alternaia brassicicola): H (H shows more than 50% of control values)
- Test D (control value class, powdery mildew on barley) [1]: H (H shows more than 50% of control values)
